# Measurements reported in PMC4336329 (PLoS ONE, 2015).
# The whole screen tested about 310,000 compounds, of which about 14,000 (4.5%) showed an effect of 50% or more. Effects have a minus sign here. This is one part of the list.
# Molecular target: human ether-à-go-go-related gene (hERG) potassium channel (human, UniProt Q12809)
# Experiment: primary screen, population patch clamp on CHO cells stably expressing hERG
# 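Note: peak tail current of the secondary pulse compared with the same well before compound.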
# human ether-à-go-go-related gene (hERG) potassium channel, sequence (Q12809 whole entry, looked up): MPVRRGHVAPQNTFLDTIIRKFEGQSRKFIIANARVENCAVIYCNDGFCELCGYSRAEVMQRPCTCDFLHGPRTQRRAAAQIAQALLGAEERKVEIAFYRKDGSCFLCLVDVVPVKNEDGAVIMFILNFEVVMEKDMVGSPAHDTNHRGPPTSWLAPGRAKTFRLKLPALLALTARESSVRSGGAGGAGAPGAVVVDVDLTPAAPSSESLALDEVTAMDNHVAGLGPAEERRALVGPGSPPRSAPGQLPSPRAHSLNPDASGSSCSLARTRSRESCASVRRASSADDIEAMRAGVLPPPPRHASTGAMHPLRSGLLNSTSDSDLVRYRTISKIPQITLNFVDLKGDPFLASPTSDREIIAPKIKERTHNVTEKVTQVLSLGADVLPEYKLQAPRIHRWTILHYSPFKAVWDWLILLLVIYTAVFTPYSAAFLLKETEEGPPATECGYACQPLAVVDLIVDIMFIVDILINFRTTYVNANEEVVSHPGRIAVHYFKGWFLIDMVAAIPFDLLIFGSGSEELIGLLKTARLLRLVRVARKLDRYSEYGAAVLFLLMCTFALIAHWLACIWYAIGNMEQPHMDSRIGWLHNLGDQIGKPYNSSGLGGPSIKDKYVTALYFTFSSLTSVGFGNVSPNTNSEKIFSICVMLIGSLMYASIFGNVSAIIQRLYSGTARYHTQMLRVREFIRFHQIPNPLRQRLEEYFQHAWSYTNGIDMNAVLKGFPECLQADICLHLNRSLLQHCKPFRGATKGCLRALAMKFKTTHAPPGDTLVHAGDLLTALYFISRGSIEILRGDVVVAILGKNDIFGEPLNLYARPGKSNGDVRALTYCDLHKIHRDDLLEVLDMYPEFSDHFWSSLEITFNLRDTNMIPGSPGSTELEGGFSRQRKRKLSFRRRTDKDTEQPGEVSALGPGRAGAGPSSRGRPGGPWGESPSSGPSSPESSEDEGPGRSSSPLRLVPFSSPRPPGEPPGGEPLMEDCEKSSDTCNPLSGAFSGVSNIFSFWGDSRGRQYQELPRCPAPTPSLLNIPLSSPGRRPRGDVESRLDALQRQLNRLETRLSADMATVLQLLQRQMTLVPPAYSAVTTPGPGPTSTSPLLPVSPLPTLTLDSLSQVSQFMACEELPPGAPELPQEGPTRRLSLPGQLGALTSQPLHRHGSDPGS
row,SMILES,"hERG current change (%, negative = inhibition) at 10uM [%]"
1,O=c1cc2c(nn1Cc1cccc(Cl)c1)-c1ccccc1CC2,-12.3
2,CCC(C)OC(=O)n1ccc(C(=O)Nc2nccs2)n1 (stereo not shown),-13.8
3,CCCCn1c(O)c(C=NC2CCCCC2N)c(=O)[nH]c1=O (stereo not shown),5.96
4,CCCCN=Cc1c(O)n(-c2c(C)cc(C)cc2C)c(=O)[nH]c1=O,-16.1
5,COc1ccc(N2CCN(C(=O)CNS(=O)(=O)c3ccc(C)c(C)c3)CC2)cc1,-19
6,Cc1nc2c(oc3ccccc32)c(=O)o1,5.06
7,CCOC(=O)/C=C/C(=O)OCC(=O)NC(c1ccccc1)c1ccccc1,0.688
8,Cc1ccc(/C=C/C(=O)Nc2ccccc2C(N)=O)cc1,-3.96
9,COc1ccc(NC(=O)C(Sc2nnc3ccccn23)c2ccccc2)cc1Cl (stereo not shown),-1.62
10,CC1CN(Cc2nc3c(c(=O)[nH]c(=O)n3C)n2CCCc2ccccc2)CC(C)O1 (stereo not shown),-35.9
11,Cc1ccc2nc(NC(=O)c3ccc(Cn4cc(Cl)cn4)o3)sc2c1,12.5
12,COc1ccc(S(=O)(=O)N2CCCCCC2)cc1C(=O)N1CCN(c2ccccc2O)CC1,-70.6
13,CCOc1ccccc1-n1nnnc1SCc1nc2ccccc2s1,-1.41
14,CC(C)(C)c1cc(C(F)(F)F)nc(SCCCNC(=O)c2ccco2)n1,-30.9
15,CCOc1ccccc1NC(=O)CSCC(=O)Nc1ccccc1,4.34
16,CCOc1ccc(C2C(C#N)=C(N)N(N(C)C)C3=C2C(=O)CC(C)(C)C3)cc1 (stereo not shown),13.2
17,Cc1ccc(/C=C/C(=O)O)cc1S(=O)(=O)N1CCc2ccccc21,21.8
18,CCn1c(N2CCN(CC(=O)c3c[nH]c4ccccc34)CC2)nc2c1c(=O)[nH]c(=O)n2C,-21.5
19,COc1ccc(N(C(=O)c2ccco2)S(=O)(=O)c2cccs2)cc1,-32.4
20,COC(=O)c1ccc(Sc2ccccc2NS(=O)(=O)c2ccc(C)cc2)nc1,-7.94
21,Cc1ccc(S(=O)(=O)NC(=O)c2ccccc2C)cc1,15
22,Cc1cc(C)cc(NC(=O)N2C3CCCC2CC(NC(=O)C2CC2)C3)c1 (stereo not shown),17
23,O=C(CNS(=O)(=O)c1ccc(Cl)cc1)NNC(=O)c1cccnc1,20.7
24,O=C(N/N=C/c1ccc(Cl)cc1)c1ccc2c(c1)OCO2,13.3
25,Cc1ccc2c(c1)=C(c1ccccc1)N(O)CC(=O)N=2,21.7
